# From paper PMC12136788
# The list shows a part of the results.
# T1: UNK ZnF1-3 (human, UniProt Q9C0B0 31-174)
# T1 sequence: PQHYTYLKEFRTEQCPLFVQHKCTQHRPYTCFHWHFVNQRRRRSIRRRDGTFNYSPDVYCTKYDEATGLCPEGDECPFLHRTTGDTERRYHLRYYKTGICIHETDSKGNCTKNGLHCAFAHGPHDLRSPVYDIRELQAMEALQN
# B1: chr16:42174308:42174309:+_ENSMUSG00000061080_ENSMUST00000099761|mus_mus|FALSE|FALSE (ssRNA)
# RNA: GGGAGUUCUACAGUCCGACGAUCGUAUCUGUGUGACGCAUUUUUGUGUGUUUUUGUAAUUAUUUUUAAAUUUUUAUUCUAUUAACAUUUGCUGAGAAGGCAGAACAGGGACGCUGCCAGCAGCCACAGUGGUACGGCCAGACUCAACAGAGGAUUGAGCAUCA
# B2: chr4:41265268:41265269:+_ENSG00000154277_ENST00000284440|hu_hu|FALSE|FALSE (ssRNA)
# RNA: GGGAGUUCUACAGUCCGACGAUCAAAAGGCAUUCGUCCAUCAAGUUCAUAGAGGUGGCCAUCCACGUUGUUAAACAGAAUAAAAUGGAAAUUCACCUUGUCAUCUACCCGACAUUGGCCUUCCUGUGCCACGGCAUCAUGGGCCAACAGAGGAUUGAGCAUCA
# B3: chr5:143665172:143665173:-_ENSMUSG00000029580_ENSMUST00000100497|perfect_dup|motif|central (ssRNA)
# RNA: GGGAGUUCUACAGUCCGACGAUCUUUGGGAGGGUGAGGGACUUCCUGUAACCACUUAUUUCAUGGAUACUUGGAAUGACGGUUAAAAAAAGACAAAACCAAAAAAAAAAAAAAACAAAACAAUGUACAAAGUCCUCAGCCACACAACAGAGGAUUGAGCAUCA
# B4: chr7:54825262:54825263:-_ENSG00000132432_ENST00000352861|hu_hu|hu_hu_hu_mus_False|8_58 (ssRNA)
# RNA: GGGAGUUCUACAGUCCGACGAUCCUGCCGGCUGGGCUCCACAAACUGCAUUACCUGAUCCAUGUUUGUUGGAUGGCACACCUAAAACGUAGAGACACGUAGCUCAGGAGAGAACCGAGCCCAACGGCACCGGAACCUGGCAACCAACAGAGGAUUGAGCAUCA
# B5: chr7:90019327:90019328:+_ENSMUSG00000057706_ENSMUST00000082237|mus_mus|FALSE|FALSE (ssRNA)
# RNA: GGGAGUUCUACAGUCCGACGAUCGAAAUAUAAUUUUUCAAGUCAAAAAAAGAAUAAAAUACUUCAAUCUGUAUUAAUGCAAUUUCUCUUUAAAACUUUUAAAGGUUUUUUUUUUUAAUAUAUAAGAGAUAUGUUACAGUUUUACAACAGAGGAUUGAGCAUCA
# B6: chr12:1897663:1897664:+_ENSG00000006831_ENST00000357103|hu_hu|motif|central (ssRNA)
# RNA: GGGAGUUCUACAGUCCGACGAUCUUGUGGCUUUAGCAUAAUUUAUAAAGGGGAAGAGGGAAAAUACUGAAAAAGGCCACGGUUUAAUGGUGAAAGAAUGAAGCUGUAGAGGUCCCAACCAGCCUAGGGCCAAAAAAGAAAAUUCAACAGAGGAUUGAGCAUCA
# B7: chr2:31148548:31148549:+_ENSMUSG00000062661_ENSMUST00000000199|mus_mus|FALSE|FALSE (ssRNA)
# RNA: GGGAGUUCUACAGUCCGACGAUCAGCUGGGGGAACAGUACAUUAGCCAUUUAGCAAUGCCCACCUUCCCCUCUCCAAAAAUGGGGCACAGUAUCUGAGAAAAAAAAAAGAGGAAAAGAUUUUUGGCUUCUUGGCCGCUGCAGGCAACAGAGGAUUGAGCAUCA
# B8: chr1:10529278:10529279:-_ENSG00000160049_ENST00000377038|hu_mus|FALSE|FALSE (ssRNA)
# RNA: GGGAGUUCUACAGUCCGACGAUCCUCUUGGGAAACCCAAGCCGUCCCUCCAUCGGAAUCAUUAUAAAUCCACUUCUCAUUGCAGGCCAACGCCACAAACUUCGUAUUGGAAGGAAGGCAGAGGAAGUAGUCAUCGUCAUCCACCAACAGAGGAUUGAGCAUCA
# B9: chr7:51716546:51716547:+_ENSMUSG00000047085_ENSMUST00000058667|mus_mus|FALSE|FALSE (ssRNA)
# RNA: GGGAGUUCUACAGUCCGACGAUCUGGGAUGCUUUCGAUGGGGUUGUUGCGCAGCCACAGCUCCCGGAGCUUGGACAGGUACUCAAAGGCCUGCGUGGGCACGGUUGUCAGCCGGUUGUCGAAGAGUUCCAGUGUGUUGAGACUCAACAGAGGAUUGAGCAUCA
# B10: chr5:92873050:92873051:-_ENSMUSG00000029426_ENSMUST00000031377|mus_mus|motif|central (ssRNA)
# RNA: GGGAGUUCUACAGUCCGACGAUCUCCCAGGGCCCAACCACAAAAAGUUUCUACACAAGUUUAUUAAAUACUUCCGGGACACAUGAACACAGUUUUAGAGACACGAUUUUAUAAAGCAGAAUUGCCAGCCAUGUCACCCUGCUCCAACAGAGGAUUGAGCAUCA
# B11: chr2:181367561:181367562:+_ENSMUSG00000002455_ENSMUST00000002529|mus_hu|FALSE|FALSE (ssRNA)
# RNA: GGGAGUUCUACAGUCCGACGAUCAACCCGCUUCUUUGCACGAAUGUCCGUUUCCAGCUCUGCGGCUCUGAUGUAAAUCCUGACAGACUGUGGGAGAUGACGGACAGCUUGGGCUACCACGGCCUUGGCUGUGUCCCCAGGCUGCAACAGAGGAUUGAGCAUCA
# B12: 77158072_77191296_765_3pUTR_ENSG00000186908_ENST00000426126|human|control|control (ssRNA)
# RNA: GGGAGUUCUACAGUCCGACGAUCCAUGUGCUGUAAUCAUCAAUAUGAGUUUUCCGUCCAAGAGGUUCACCAUAUCCAUGGUUAUAAUGGCUUUGGGGUUUGAUUUCCUCUGGGUGGAGAAGGGGCACACAGCCCGCUUCGGUACAACAGAGGAUUGAGCAUCA
# B13: chr7:141438946:141438947:+_ENSG00000106028_ENST00000265304|hu_mus|hu_hu_hu_mus_True|18_58 (ssRNA)
# RNA: GGGAGUUCUACAGUCCGACGAUCGACGAAAUACCUGUAACACAGGUCUUCGAAACAUGGCUUCUGUUUUUCUUACAGUCUAAUCUUUAGGCUUUUCCUAAAGGAAAGAAAGAAAAGGCCCAGCCACUAAAUCAAGAAACUACACAACAGAGGAUUGAGCAUCA
# B14: chr7:54823571:54823572:-_ENSG00000132432_ENST00000352861|hu_mus|hu_hu_hu_mus_False|8_8 (ssRNA)
# RNA: GGGAGUUCUACAGUCCGACGAUCUCCCAUGAUAGCAAAUCCUAUAGCUGUAGCCAUGGCAAUCUUCUGGAAUUCUUUUCUGUCGGGUUUGGUGCAUCUUUUAACCAGCCGAAUUGAGUCCUUUACAAACUGCCGACUGGGCUCCAACAGAGGAUUGAGCAUCA
# Biological target: T1, UNK ZnF1-3
# Assay: nsRBNS (natural sequence RNA bind-n-seq); RBNS binding buffer (assumed for nsRBNS): 25 mM Tris pH 7.5, 150 mM KCl, 3 mM MgCl2, 0.01% Triton X-100, 500 ug/ml BSA, 20 U/ml SUPERase-In, 4 C; UNK is unkempt and MSI1 is Musashi-1; names of the RNAs are library labels; protein concentration not given here; high values mean tight binding
row,Binder,binding signal [enrichment R]
1,B1,3.2
2,B2,1.02
3,B3,1.06
4,B4,1.17
5,B5,2.97
6,B6,2.82
7,B7,2.7
8,B8,1.11
9,B9,0.613
10,B10,2.18
11,B11,0.681
12,B12,0.938
13,B13,0.4
14,B14,0.757
